# Results: the supplement of paper PMC3334620
# In all, about 33,000 sequences were measured (“E-score (-0.5 to 0.5)”: median about -0.036, highest 2% from about 0.37 on). The list shows a part of the results.
# Target: T1, Yer064c (UniProt P40041)
# T1 sequence: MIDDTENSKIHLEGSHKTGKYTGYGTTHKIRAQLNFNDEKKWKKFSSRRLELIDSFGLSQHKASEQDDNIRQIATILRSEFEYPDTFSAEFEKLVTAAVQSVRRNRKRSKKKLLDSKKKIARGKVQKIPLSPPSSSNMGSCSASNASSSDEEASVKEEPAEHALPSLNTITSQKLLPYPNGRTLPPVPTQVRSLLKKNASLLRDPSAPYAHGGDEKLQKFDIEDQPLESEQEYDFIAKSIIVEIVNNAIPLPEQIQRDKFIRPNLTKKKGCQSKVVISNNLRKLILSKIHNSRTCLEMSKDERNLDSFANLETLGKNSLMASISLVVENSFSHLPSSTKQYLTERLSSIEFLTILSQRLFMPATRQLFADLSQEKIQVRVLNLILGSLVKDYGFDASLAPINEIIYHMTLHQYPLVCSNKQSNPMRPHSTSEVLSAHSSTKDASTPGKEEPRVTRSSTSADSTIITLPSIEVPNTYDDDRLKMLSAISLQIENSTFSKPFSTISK
# Assay: PBM E-score (8-mer binding enrichment) (E-score (-0.5 to 0.5)); higher = stronger / more preferred TF binding; most listed sequences are background and not binding sites
# Details: protein concentration: 200 nM; construct: GST-full length
# Procedure, shortened: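 Bound GST-tagged yeast transcription factors, applied at about 100-200 nM to double-stranded universal all-10-mer Agilent arrays, were detected with fluorescent anti-GST. Scans were normalised with masliner. A modified Wilcoxon-Mann-Whitney statistic, the E-score, was assigned to each ungapped eight-base word pooled with its reverse complement by the Universal PBM Analysis Suite.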
row,Sequence,PBM E-score
1,CCACTACA,-0.0682
2,CCTCTTAA,-0.0462
3,CATTGCTA,-0.125
4,AAATGCGC,-0.152
5,GTGCAATA,-0.165
6,AACCGTTA,0.0513
7,GATAATGA,0.158
8,GACCCATA,0.145
9,AAGAAAGT,0.0227
10,AGGTGTCC,-0.0242
11,CATCGTAA,0.0458
12,ACTCTATA,0.239
13,ACTCACGC,0.357
14,GGTCATCA,0.228
15,CGCCGTTC,-0.0382
16,CCTGAGAC,0.103
17,ACGATCGG,-0.0226
18,CATATATA,0.187
19,GAGCTACA,-0.0672
20,AGGGACCC,-0.274
21,AGTAAAGC,0.106
22,TCCTTTCA,-0.0272

row,Sequence,PBM E-score
1,AACAGGAC,0.0509
2,AACCGCCG,-0.0111
3,AGACAATG,-0.128
4,ACCGTGGC,-0.062
5,AATCAAAG,0.224
6,ATGATGAC,0.352
7,CAGGGCTA,-0.2
8,CTCAGCAA,0.129
9,AACACATG,0.0954
10,AATTAAAG,-0.0137
11,AGTCTATA,0.214
12,GACGGCGA,0.138
13,ACATTCCG,-0.191
14,AACGAAGT,-0.0275
15,AAGCGAAA,-0.213
16,CGCGCGAA,-0.0177
17,AGAACGCG,-0.101
18,CCAGGAAA,0.0481
19,ACCATCTG,-0.058
20,CCTTCCTA,-0.284
21,CCACTGTC,-0.218
22,AGTTAAAG,0.0913

row,Sequence,PBM E-score
1,GCACACTA,-0.128
2,TGCTAGCA,-0.178
3,CGCTTCTA,-0.00649
4,CCGCCTTC,-0.229
5,GCGTTTAA,0.0655
6,AAGTGCGA,0.027
7,CCCGAAGG,-0.102
8,AACTGGAA,-0.111
9,CGCCTTCA,-0.29
10,CCGCTTGC,-0.187
11,CATCAATC,0.216
12,AGTGTGTG,0.0709
13,GAGGAACC,-0.249
14,ACGCACCT,-0.264
15,ATACAGCC,-0.0904
16,CACCCCGC,-0.133
17,AATATGGA,-0.0374
18,CATGGTTC,0.263
19,ATTGAGGC,-0.156
20,ATGGACCG,-0.206
21,CCATACCA,-0.044
22,CTTGTGAC,0.222

row,Sequence,PBM E-score
1,CAGGTTCC,-0.185
2,AGCTCAGA,0.0441
3,ACTTGGCC,-0.134
4,GGTCTTAC,0.131
5,GCGGTGTA,-0.121
6,CTAGAAAG,0.0546
7,AGATACCT,-0.183
8,CGACTTTA,0.167
9,TGAATGAA,0.0427
10,GGGCAATA,-0.195
11,ATATCAGC,-0.216
12,AACGTGTA,0.00661
13,AAAGACGG,-0.116
14,GAACAACA,0.0466
15,AGAAGACG,-0.0622
16,CGGGCAGA,-0.0675
17,CACTCAAA,0.107
18,CTTTCTAC,-0.146
19,CAGTGCGG,-0.169
20,TCATTACA,0.208
